The record followed here is the antibiotic and cytotoxicity screens of Wong et al. (2023).

Some of the results follow.

The test system of the experiment is HSkMC (human skeletal muscle cells). Description: cytotoxicity call (relative viability < 0.9). The settings on record: 10 µM.
With `C[C@H](CO)N1C[C@H](C)[C@@H](CN(C)C(=O)Nc2ccc3c(c2)OCO3)Oc2ccc(NS(=O)(=O)c3cn(C)cn3)cc2CC1=O`, the cytotoxicity call was “inactive”.

As to `COc1ccccc1OCCNCC(O)COc1cccc2[nH]c3ccccc3c12` (stereo not given), the cytotoxicity call was “inactive”.

Take `CCc1nc2c(OCC(=O)c3ccc(Cl)cc3Cl)cccn2c1N(C=O)Cc1ccc(OC)cc1`: the cytotoxicity call is “inactive”.

Regarding `CN(C)CCc1cc(Br)c(OCCCNC(=O)/C=C/c2cc(Br)c(OCCN3CCCC3)c(Br)c2)c(Br)c1`, the cytotoxicity call was “active”.

As to `C[C@H](CO)N1C[C@H](C)[C@@H](CN(C)S(=O)(=O)c2ccc(F)cc2)Oc2ccc(NC(=O)Nc3ccc(C(F)(F)F)cc3)cc2C1=O`, the cytotoxicity call was “inactive”.

For `COc1ccc2[nH]c(=O)[nH]c(=O)c2c1`, the cytotoxicity call was “inactive”.

As to `Cc1ccc(N2C(=O)C(=O)NC2=S)cc1`, the cytotoxicity call is “inactive”.

For `CCn1c(C)cc(C)c(C(=O)N2C[C@H]3C(=O)NC[C@@]3(C(=O)O)C2)c1=O`, the cytotoxicity call is “inactive”.

`CCN1C(C)(C)CC(Oc2ccc(C(=O)Nc3ccc(NC(=O)Nc4cc(C(C)(C)C)on4)cc3)nc2)CC1(C)C`: the cytotoxicity call is “active”.

As for `O=C(C[C@H]1CC[C@H](NC(=O)Nc2ccc3c(c2)OCO3)[C@H](CO)O1)NCCCN1CCOCC1`, the cytotoxicity call was “inactive”.
